Molecular target: indoleamine 2, 3-dioxygenase (IDO1) (Homo sapiens, UniProt P14902)
Assay: IDO1 PBMC RapidFire MS Assay (kynurenine by mass spectrometry)
Assay type: cell-based
Conditions: human PBMC stimulated with IFN-γ and LPS, 2 days; recorded as pIC50; read-out: IDO1 PBMC PXC50 (converted)
Procedure: IDO1 PBMC RapidFire MS Assay
Compounds of the present invention were tested via high-throughput cellular assays utilizing detection of kynurenine via mass spectrometry and cytotoxicity as end-points. […] Compounds with IDO1 inhibitory properties decreased the amount of kynurenine produced by the cells via the tryptophan catabolic pathway. Cellular toxicity due to the effect of compound treatment was measured using CellTiter-Glo® reagent (CTG) (Promega Corporation, Madison, Wis.), which is based on luminescent detection of ATP, an indicator of metabolically active cells.
In preparation for the assays, test compounds were serially diluted 3-fold in DMSO from a typical top concentration of 1 mM or 5 mM and plated at 0.5 μL in 384-well, polystyrene, clear bottom, tissue culture treated plates with lids (Greiner Bio-One, Kremsmünster, Austria) to generate 11-point dose response curves. Low control wells (0% kynurenine or 100% cytotoxicity) contained either 0.5 μL of DMSO in the presence of unstimulated (−IFN-γ/−LPS) PBMCs for the mass spectrometry assay or 0.5 μL of DMSO in the absence of cells for the cytotoxicity assay, and high control wells (100% kynurenine or 0% cytotoxicity) contained 0.5 μL of DMSO in the presence of stimulated (+IFN-γ/+LPS) PBMCs for both the mass spectrometry and cytotoxicity assays.
Frozen stocks of PBMCs were washed and recovered in RPMI 1640 medium (Thermo Fisher Scientific, Inc., Waltham, Mass.) supplemented with 10% v/v heat-inactivated fetal bovine serum (FBS) (Thermo Fisher Scientific, Inc., Waltham, Mass.), and 1× penicillin-streptomycin antibiotic solution (Thermo Fisher Scientific, Inc., Waltham, Mass.). The cells were diluted to 1,000,000 cells/mL in the supplemented RPMI 1640 medium. 50 μL of either the cell suspension, for the mass spectrometry assay, or medium alone, for the cytotoxicity assay, were added to the low control wells, on the previously prepared 384-well compound plates, resulting in 50,000 cells/well or 0 cells/well respectively. IFN-γ and LPS were added to the remaining cell suspension at final concentrations of 100 ng/ml and 50 ng/ml respectively, and 50 μL of the stimulated cells were added to all remaining wells on the 384-well compound plates. The plates, with lids, were then placed in a 37° C., 5% CO2 humidified incubator for 2 days.
Following incubation, the 384-well plates were removed from the incubator and allowed to equilibrate to room temperature for 30 minutes. For the cytotoxicity assay, CellTiter-Glo® was prepared according to the manufacturer's instructions, and 40 μL were added to each plate well. After a twenty minute incubation at room temperature, luminescence was read on an EnVision® Multilabel Reader (PerkinElmer Inc., Waltham, Mass.). For the mass spectrometry assay, 10 μL of supernatant from each well of the compound-treated plates were added to 40 μL of acetonitrile, containing 10 μM of an internal standard for normalization, in 384-well, polypropylene, V-bottom plates (Greiner Bio-One, Kremsmünster, Austria) to extract the organic analytes. Following centrifugation at 2000 rpm for 10 minutes, 10 μL from each well of the acetonitrile extraction plates were added to 90 μL of sterile, distilled H2O in 384-well, polypropylene, V-bottom plates for analysis of kynurenine and the internal standard on the RapidFire 300 (Agilent Technologies, Santa Clara, Calif.) and 4000 QTRAP MS (SCIEX, Framingham, Mass.). MS data were integrated using Agilent Technologies' RapidFire Integrator software, and data were normalized for analysis as a ratio of kynurenine to the internal standard.

UniProt P14902, sequence (P14902 whole entry): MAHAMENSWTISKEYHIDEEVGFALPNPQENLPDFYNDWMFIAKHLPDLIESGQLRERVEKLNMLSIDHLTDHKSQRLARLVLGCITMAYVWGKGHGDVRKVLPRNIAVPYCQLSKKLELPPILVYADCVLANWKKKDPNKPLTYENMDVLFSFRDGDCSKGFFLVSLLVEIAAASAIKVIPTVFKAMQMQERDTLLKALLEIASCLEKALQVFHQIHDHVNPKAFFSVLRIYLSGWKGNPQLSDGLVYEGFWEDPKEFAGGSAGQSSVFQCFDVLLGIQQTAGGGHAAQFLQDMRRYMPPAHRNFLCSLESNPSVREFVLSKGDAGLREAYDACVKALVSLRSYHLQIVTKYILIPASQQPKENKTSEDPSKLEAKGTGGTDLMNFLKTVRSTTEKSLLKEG

| IC50 [µM] | Structure (SMILES) |
| --- | --- |
| 0.02 | CC(C)CN(c1ncc([C@H](C)CC(=O)O)cc1Nc1ccc(C(F)(F)F)cn1)C1CCOCC1 [Example 52, (3R)-3-{6-[(2-methylpropyl)(oxan-4-yl)amino]-5-{[5-(trifluoromethyl)pyridin-2-yl]amino}pyridin-3-yl}butanoic acid] |
| 0.0398 | COC1CCC(N(CC(C)C)c2ncc(C(C)CC(=O)O)cc2Nc2ccc(C#N)cn2)CC1 (stereo not drawn) [Example 53, (3RS)-3-{5-[(5-cyanopyridin-2-yl)amino]-6-[(2-methylpropyl)[(1rs&,4rs&)-4-methoxycyclohexyl]amino]pyridin-3-yl}butanoic acid] |
| 0.0631 | CC(C)CN(CC(C)C)c1ncc([C@H](C)CC(=O)O)cc1Nc1nc(C(C)C)ns1 [Example 54, (3R)-3-{6-[bis(2-methylpropyl)amino]-5-{[3-(propan-2-yl)-1,2,4-thiadiazol-5-yl]amino}pyridin-3-yl}butanoic acid] |
| 0.1 | COCc1nsc(Nc2cc([C@H](C)CC(=O)O)cnc2N(CC(C)C)C2CCOCC2)n1 [Example 56, (3R)-3-(5-{[3-(methoxymethyl)-1,2,4-thiadiazol-5-yl]amino}-6-[(2-methylpropyl)(oxan-4-yl)amino]pyridin-3-yl)butanoic acid] |
| 0.0251 | CC(C)CN(c1ncc([C@H](C)CC(=O)O)cc1Nc1ccc(C#N)cn1)C1CCOCC1 [Example 57, (3R)-3-{5-[(5-cyanopyridin-2-yl)amino]-6-[(2-methylpropyl)(oxan-4-yl)amino]pyridin-3-yl}butanoic acid] |
| 0.2 | COCc1ccc(Nc2cc([C@H](C)CC(=O)O)cnc2N(CC(C)C)[C@H]2CC[C@@H](OC)CC2)nc1 [Example 58, (3R)-3-(5-{[5-(methoxymethyl)pyridin-2-yl]amino}-6-[(2-methylpropyl)[(1s,4s)-4-methoxycyclohexyl]amino]pyridin-3-yl)butanoic acid] |
| 0.0398 | CC(C)CN(c1ncc(C(C)CC(=O)O)cc1Nc1nc(C(F)(F)F)ns1)C1CCC(O)CC1 (stereo not drawn) [Example 59, (3RS)-3-{6-[(2-methylpropyl)[(1rs&,4rs&)-4-hydroxycyclohexyl]amino]-5-{[3-(trifluoromethyl)-1,2,4-thiadiazol-5-yl]amino}pyridin-3-yl}butanoic acid] |
| 0.0158 | CC(C)CN(c1ncc([C@H](C)CC(=O)O)cc1Nc1ccc(Cl)nn1)C1CCOCC1 [Example 60, (3R)-3-{5-[(6-chloropyridazin-3-yl)amino]-6-[(2-methylpropyl)(oxan-4-yl)amino]pyridin-3-yl}butanoic acid] |
| 0.0158 | CC(C)CN(c1ncc([C@H](C)CC(=O)O)cc1Nc1ccc(C#N)nc1)C1CCOCC1 [Example 62, (3R)-3-{5-[(6-cyanopyridin-3-yl)amino]-6-[(2-methylpropyl)(oxan-4-yl)amino]pyridin-3-yl}butanoic acid] |
| 0.0126 | CC(C)CN(c1ncc([C@H](C)CC(=O)O)cc1Nc1nnc(C(N)=O)s1)C1CCCCC1 [Example 63, (3R)-3-{5-[(5-carbamoyl-1,3,4-thiadiazol-2-yl)amino]-6-[cyclohexyl(2-methylpropyl)amino]pyridin-3-yl}butanoic acid] |
| 0.0251 | CNC(=O)c1nnc(Nc2cc([C@H](C)CC(=O)O)cnc2N(CC(C)C)C2CCCCC2)s1 [Example 64, (3R)-3-{6-[cyclohexyl(2-methylpropyl)amino]-5-{[5-(methylcarbamoyl)-1,3,4-thiadiazol-2-yl]amino}pyridin-3-yl}butanoic acid] |
| 0.0251 | CC(C)CN(c1ncc([C@H](C)CC(=O)O)cc1Nc1cnc(C#N)nc1)C1CCOCC1 [Example 65, (3R)-3-{5-[(2-cyanopyrimidin-5-yl)amino]-6-[(2-methylpropyl)(oxan-4-yl)amino]pyridin-3-yl}butanoic acid] |
| 0.0126 | CC(C)CN(c1ncc([C@H](C)CC(=O)O)cc1Nc1ccc(C(F)(F)F)nn1)C1CCOCC1 [Example 66, (3R)-3-{6-[(2-methylpropyl)(oxan-4-yl)amino]-5-{[6-(trifluoromethyl)pyridazin-3-yl]amino}pyridin-3-yl}butanoic acid] |
| 0.0631 | CC(C)CN(c1ncc([C@H](C)CC(=O)O)cc1Nc1cnc(C#N)cn1)C1CCOCC1 [Example 67, (3R)-3-{5-[(5-cyanopyrazin-2-yl)amino]-6-[(2-methylpropyl)(oxan-4-yl)amino]pyridin-3-yl}butanoic acid] |
| 0.0316 | CC(C)CN(c1ncc([C@H](C)CC(=O)O)cc1Nc1ccc(Cl)c(Cl)n1)C1CCOCC1 [Example 68, (3R)-3-{5-[(5,6-dichloropyridin-2-yl)amino]-6-[(2-methylpropyl)(oxan-4-yl)amino]pyridin-3-yl}butanoic acid] |
| 0.251 | Cc1nc(Nc2cc([C@H](C)CC(=O)O)cnc2N(CC(C)C)C2CCOCC2)ccc1Cl [Example 69, (3R)-3-{5-[(5-chloro-6-methylpyridin-2-yl)amino]-6-[(2-methylpropyl)(oxan-4-yl)amino]pyridin-3-yl}butanoic acid] |
| 0.158 | CC(C)CN(c1ncc([C@H](C)CC(=O)O)cc1Nc1ccc(Cl)c(C#N)n1)C1CCOCC1 [Example 70, (3R)-3-{5-[(5-chloro-6-cyanopyridin-2-yl)amino]-6-[(2-methylpropyl)(oxan-4-yl)amino]pyridin-3-yl}butanoic acid] |
| 0.02 | CC(C)CN(CC(F)F)c1ncc([C@H](C)CC(=O)O)cc1Nc1ccc(Cl)cn1 [Example 71, (3R)-3-{5-[(5-chloropyridin-2-yl)amino]-6-[(2,2-difluoroethyl)(2-methylpropyl)amino]pyridin-3-yl}butanoic acid] |
| > 10 | CC(C)CN(CC(C)C)c1nnc(C(C)CC(=O)O)cc1Nc1nc(C(F)(F)F)ns1 (stereo not shown) [Example 72, 3-{6-[bis(2-methylpropyl)amino]-5-{[3-(trifluoromethyl)-1,2,4-thiadiazol-5-yl]amino}pyridazin-3-yl}butanoic acid] |
| 0.126 | CC(C)CN(c1ncc([C@H](C)CC(=O)O)cc1Nc1ccc(C#N)nn1)C1CCOCC1 [Example 74, (3R)-3-{5-[(6-cyanopyridazin-3-yl)amino]-6-[(2-methylpropyl)(oxan-4-yl)amino]pyridin-3-yl}butanoic acid] |
| 0.0398 | CC(C)CN(c1ncc([C@H](C)CC(=O)O)cc1Nc1ccc(Cl)cn1)C1CC(F)(F)C1 [Example 75, (3R)-3-{5-[(5-chloropyridin-2-yl)amino]-6-[(3,3-difluorocyclobutyl)(2-methylpropyl)amino]pyridin-3-yl}butanoic acid] |
| 0.0631 | CC(C)CN(CCC(F)(F)F)c1ncc([C@H](C)CC(=O)O)cc1Nc1ccc(Cl)cn1 [Example 76, (3R)-3-{5-[(5-chloropyridin-2-yl)amino]-6-[(2-methylpropyl)(3,3,3-trifluoropropyl)amino]pyridin-3-yl}butanoic acid] |
| 0.02 | CC(C)CN(c1ncc([C@H](C)CC(=O)O)cc1Nc1cnc(Cl)cn1)C1CCOCC1 [Example 77, (3R)-3-{5-[(5-chloropyrazin-2-yl)amino]-6-[(2-methylpropyl)(oxan-4-yl)amino]pyridin-3-yl}butanoic acid] |

| Structure (SMILES) | IC50 [µM] |
| --- | --- |
| Cc1ccc(CC(=O)Nc2cc([C@H](C)CC(=O)O)cnc2N(CC(C)C)C2CC3(C2)CN(C(=O)OC(C)(C)C)C3)cc1 [Example 55, (3R)-3-[6-({2-[(tert-butoxy)carbonyl]-2-azaspiro[3.3]heptan-6-yl}(2-methylpropyl)amino)-5-[2-(4-methylphenyl)acetamido]pyridin-3-yl]butanoic acid] | 2 |
| Cc1cc(NC(=O)Nc2cc([C@H](C)CC(=O)O)cnc2N(CC(C)C)C2CC3(C2)CN(C(=O)OC(C)(C)C)C3)on1 [Example 61, (3R)-3-[6-({2-[(tert-butoxy)carbonyl]-2-azaspiro[3.3]heptan-6-yl}(2-methylpropyl)amino)-5-{[(3-methyl-1,2-oxazol-5-yl)carbamoyl]amino}pyridin-3-yl]butanoic acid] | 2 |
